Common to all, as to test: Primary Screen for Target Class Profiling of Small Molecule Inhibitors of Methyltransferases
Assay [1] deals with Glycine N-methyltransferase (Homo sapiens) (UniProt Q14749). The settings on record: purified enzyme, MTase-Glo SAH luminescence; measured here: GNMT inhibition; at 40 µM; stronger effect = lower value. The procedure, abridged: (§1)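 Each enzyme was assayed with SAM and its substrate. SAH formation detected by MTase-Glo luminescence; single-point 40 uM screen[…].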
Assay [2] addresses Guanidinoacetate N-methyltransferase (Homo sapiens) (UniProt Q14353). The conditions noted are these: purified enzyme, MTase-Glo SAH luminescence; measured here: GAMT inhibition; at 40 µM; stronger effect = lower value. The procedure, abridged: as §1
The target of assay [3] is Histamine N-methyltransferase (Homo sapiens) (UniProt P50135). The conditions noted are these: purified enzyme, MTase-Glo SAH luminescence; measured here: HNMT inhibition; at 40 µM; stronger effect = lower value. The procedure, abridged:
as §1

Assay [4] concerns the target Nicotinamide N-methyltransferase (Homo sapiens) (UniProt P40261). The settings on record: purified enzyme, MTase-Glo SAH luminescence; measured here: NNMT inhibition; at 40 µM; stronger effect = lower value. The procedure, abridged: as §1
The target in assay [5] is Phenylethanolamine N-methyltransferase (Homo sapiens) (UniProt P11086). The conditions noted are these: purified enzyme, MTase-Glo SAH luminescence; measured here: PNMT inhibition; at 40 µM; stronger effect = lower value. The procedure, abridged:
as §1

The list shows a part of the results. These are further read-outs of the screen, such as a control signal, another cell line or another target. No call is given for them.

The record followed here is PubChem BioAssay AID1745853 (National Center for Advancing Translational Sciences (NCATS), 2022).
% is scaled to controls: 0 for no effect and ±100 for the full control effect.

For the compound `CC1(C)CCC2(C(=O)OC3OC(CO)C(O)C(O)C3O)CCC3(C)C(=CCC4C5(C)CCC(OC6OC(C(=O)O)C(OC7OC(CO)C(O)C(O)C7O)C(OC7OC(CO)C(O)C(O)C7O)C6O)C(C)(C)C5CCC43C)C2C1` (stereo not drawn), the activity change, negative = inhibition was 0.458% in assay [1]; 3.56% in assay [2]; 8.16% in assay [3]; -9.11% in assay [4]; 0.701% in assay [5].
Regarding `CCOc1cc(=O)n2c(c1C(=O)Nc1cccc(C)c1)CCCC2`, the activity change, negative = inhibition is -2.21% in assay [1]; -1.05% in assay [2]; -0.096% in assay [3]; -6.96% in assay [4]; -0.447% in assay [5].
On the same counts, the results for `CCCn1c(=O)c2ccc(C(=O)NC(C)C)cc2n2c(=O)n(Cc3cccc(OC)c3)nc12` are -1.49%, 5.89%, 5.97%, -7.78% and -0.629%.
With `CNC(=O)[C@@H](Cc1ccccc1)N1CCC[C@H]1C(=O)NCC1CC1`, the activity change, negative = inhibition in assay [1] is -0.821%; in assay [2], 0.462%; in assay [3], -0.75%; in assay [4], 1.42%; in assay [5], 2%.
Turning to `C=CC(=O)Nc1cccc(Nc2nc(Nc3ccc(NC4CN(CCF)C4)cc3OC)ncc2C(F)(F)F)c1`, the activity change, negative = inhibition is -14% in assay [1]; -1.97% in assay [2]; -13.8% in assay [3]; -24.5% in assay [4]; -1.1% in assay [5].
With `COc1cc(/C=C\c2ccc(O)cc2)cc(OC)c1`, the activity change, negative = inhibition was 5.52% in assay [2], -2.25% in assay [4] and 4.4% in assay [5].
With `COCCNC(=O)c1cc2n(n1)CC(C)(C(=O)NC1CCCCC1)N(C)C2=O` (stereo not drawn), the activity change, negative = inhibition in assay [1] was determined as 10.6%; in assay [2], 0.064%; in assay [3] it was 8.43%; in assay [4] it was 12.7%; in assay [5] it was 5.2%.
Turning to `CCCc1nc(CN(CC)C(=O)c2ccc(NC(=O)C3CCC3)cc2)no1`, the activity change, negative = inhibition in assay [1] was -3.74%; in assay [2] it was -3.16%; in assay [3], -1.17%; in assay [4], -7.32%; in assay [5], -2.96%.
For `NCC(=O)N[C@H]1CN(c2nccc(C(F)(F)F)n2)C[C@@H]1C1CC1`, the activity change, negative = inhibition is -3.72% in assay [1]; -4.47% in assay [2]; -0.538% in assay [3]; -11.6% in assay [4]; -19.2% in assay [5].
On to `CCC(C)NC(=O)c1ccc2c(=O)n(C)c3nn(Cc4cccc(Cl)c4)c(=O)n3c2c1` (stereo not drawn), for which the activity change, negative = inhibition in assay [1] is 1.83%; in assay [2], 2.75%; in assay [3] it was 7.61%; in assay [4] it was -0.539%; in assay [5], 4.99%.
Regarding `NCC(O)c1ccc(O)c(O)c1` (stereo not drawn), the activity change, negative = inhibition in assay [1] was -63.6%; in assay [2] it was 1.5%; in assay [3] it was -6.22%; in assay [4], -8.94%; in assay [5], 2.68%.
In the case of `COC(=O)c1cc2n(n1)CC(C)(C(=O)NC1CCC(C)CC1)N(Cc1ccc(OC(C)C)cc1)C2=O` (stereo not drawn), the activity change, negative = inhibition in assay [1] was -2.86%; in assay [2] it was 1.34%; in assay [3] it was 1.78%; in assay [4] it was -12%; in assay [5] it was -2.3%.
As to `COc1ccc2c(c1)C(C(=O)Nc1ccc(C)c([S+](=O)([O-])N3CCOCC3)c1)=CC(C)(C)CO2`, the activity change, negative = inhibition in assay [1] is -0.951%; in assay [2] it was 1.52%; in assay [3], 0.647%; in assay [4], -5.39%; in assay [5], 13.6%.
For the compound `CN(CC(=O)NCc1ccc(F)cc1)S(=O)(=O)c1ccc2[nH]c3c(c2c1)CCCC3`, the activity change, negative = inhibition in assay [1] was found to be 3.32%; in assay [2], 1.61%; in assay [3] it was 0.602%; in assay [4] it was 4.15%; in assay [5] it was 2.75%.
As for `Cc1cnn(C(C)c2nc(-c3ccc(C)nn3)no2)c1` (stereo not drawn), the activity change, negative = inhibition in assay [1] was -1.94%; in assay [2], -2.96%; in assay [3], 0.642%; in assay [4], -4.95%; in assay [5] it was -1.13%.
`O=c1ccc2c(OCCCCc3ccccc3)c3ccoc3cc2o1`: the activity change, negative = inhibition is -13.7% in assay [1]; 7.25% in assay [2]; -2.23% in assay [3]; -4.12% in assay [4]; 7.23% in assay [5].
`COc1ccc(CNc2nc3c(-c4cccc(F)c4)nnn3c3ccccc23)cc1`: the activity change, negative = inhibition in assay [1] is 0.353%; in assay [2] it was -0.624%; in assay [3], -2.12%; in assay [4], -15.9%; in assay [5] it was -7.78%.
